Reference: the supplement of paper PMC11417369
Some of the results follow.

test system: PF3D7_0420300 AP2 domain 1 (GST-tagged); test: gcPBM binding intensity (ln(normalized median fluorescence intensity)); higher = stronger DNA binding
How it was run: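 The highest Masliner-normalised natural-log median intensity across replicate spots of either probe orientation is reported as binding intensity. GST-tagged P. falciparum DNA-binding domains expressed in E. coli were applied for 1 h to an Agilent 4 × 180k array of primer-extended double-stranded 36-bp intergenic genomic probes plus negative controls, and bound protein was detected with Alexa488 anti-GST antibody and scanned at 488 nm.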

Point of comparison: “ATATTATAGATATACACACACACATGCATGCACATA [CACACA_site6203]”, “gcPBM binding intensity (ln)” value 10.1. Against it:
- TATATATATATAAAGGTGCATATCTTTACGTATGTC [GTGCAC_site9665] — lower, 9.31
- TTTTTTTTATCAAATTGTACATATACAAAGGTGATC [XGTACX_site8054] — lower, 8.86
- ATTTTATTTTTTAATAGTACTCATTTTTTATGTGAA [XGTACX_site5494] — lower, 9.15
- TACAAATTAATATGTACACACAAATATAAATATGTA [CACACA_site7016] — lower, 9.43
- TACGTTATATACAACTGTACTTGGATAATTATTAAC [XGTACX_site5614] — lower, 9.26
- TTTTCTTTTTTGAACTGTACGCGTAAATTTAAAAAG [XGTACX_site882] — lower, 8.86
- AAGTTTTTTTCTTTTTTTCTCTCTTTTTTTTTTTTT [XGTACX_negctrl_site613] — lower, 9.46
- TTTTTTATTTATTGTTATACATCTTACTACTTATAA [GTGCAC_negctrl_site381] — lower, 9.38
- AATATATTTATATATAGTACTTTTATAATATCGTTT [XGTACX_site6658] — lower, 9.21
- AATACACATAATACATGTACTCACATTGTTATAACA [XGTACX_site4129] — lower, 9.38
- GATATGATTAACTTATGTTATTCTTGATGATTACGT [CACACA_negctrl_site354] — lower, 9.23
- AAGAAAAATGTGTTTTTTTTTTTTTTTTTTTTCAAT [TGCATGCA_negctrl_site404] — lower, 8.77
- TGTGAAATAAAATTTATACACACTTGCTAAATGATC [CACACA_site181] — lower, 9.31
- CTTTTTTTTTTAAATAGTACTTTCTCGTATACTCAT [XGTACX_site1842] — lower, 9.17
- TATAAATATAAATACACACACACACGCCAAAGCGTA [CACACA_site6181] — the same, 10.1
- TTTTTTTATTTTTGTTGTACTTATAATTCTGTAAAA [XGTACX_site7344] — lower, 9.32
- TTTTTTAAAAAACAAACACACACGTAGAAAAAAAAA [CACACA_site826] — lower, 9.71
- TAATTATATGGATACACACACATACATTTACATAAC [CACACA_site5744] — lower, 9.91
- TATAACTATAAAAGGAGTACTATATATATATATATA [XGTACX_site1388] — lower, 9
- ACTTATTTATTTTTAGTGCATTTAGTTTTATTTTAT — lower, 9.63
- AGTATACACAAACACACACACACAAAAAAAAAAAAA [CACACA_site8036] — lower, 9.86
- TAAAAAGAAAAAAAGAGTACAAACAAAATAATAATT [XGTACX_site6071] — lower, 9.76
- TATTTGCAATGCAAATGTACATGAATTTTTTTAATG [XGTACX_site7474] — lower, 8.95
- TCTACAAAATTATCATGTACATATTATTATAATTAT [XGTACX_site6585] — lower, 9.19
- AATAGTACAAAAAAAAAAAAAAAAAAAAAAAAAAAA [CACACA_negctrl_site1376] — lower, 8.56
- AAATATTTTTTAATGTGTACATAGAACATATATATA [XGTACX_site3136] — lower, 9.01
- ATAATATATATATTATGTACATATAAATTTTTTTTT [XGTACX_site5826] — lower, 9.09
- TATATACCTATATATACACACAAATACATAAGCTTC [CACACA_site1369] — lower, 9.75
- TACACCTGCACGATTGCACACAAATATGTTTTGAAG [CACACA_site8656] — lower, 9.58
- AAAAAAAAAAAAAAAACACACATGTATAATATAATA [CACACA_site2209] — lower, 9.38
- TTATTATTAAAACACACACACAAAAAAAAAAAAAAA [CACACA_site1480] — lower, 9.67
- TTATATATATATATATAATATATATATATTTAAATA [XGTACX_negctrl_site453] — lower, 8.67
- TATAGATGTGGTTTATGTACATACTATAAAAAATCA [XGTACX_site1400] — lower, 9.25
- AAGGACAACAAACAAACACACACAAAAAAAAAATAA [CACACA_site9263] — lower, 9.99
- AAGAATATAATCTTCACACATATATATATATATATA [CACACA_site5927] — lower, 9.13
- ACCTAATATTATTAAACATGCACATTTGCATAAATA [TGCATGCA_site870] — lower, 9.13
- CAAAATGAAAGGAAAAGTACATTTAAATGAATAAAT [XGTACX_site8241] — lower, 9.46
- AAATAATTCAAAAAAACACACAAATTACAAAATAAA [CACACA_site269] — lower, 9.72
- TAAAAATATATTATATGTACGTATAACAATGTATGA [XGTACX_site8606] — lower, 9.24
- GTATAATATTCATATTCACACATTAAAATATATTTA [CACACA_site4879] — lower, 9.22
- AGATGAACTAAAAAGGTGCTAAATATGTGACCACTG [GTGCAC_site9406] — lower, 9.26
- TAATTAAATATTTCAGTGCATTATTTTATGATCCAT [GTGCAC_site9456] — lower, 9.19
- TACATACACAGACACACACACATATAAATATAAATA [CACACA_site7641] — lower, 9.95
- ATTTAGAATGTTCCTACACACCAAATTTAAGTGTGC [CACACA_site7161] — lower, 9.45
- TTTTTTTTAGTATGAACACACATATAGATTATAAAA [CACACA_site7391] — lower, 8.94
- ATAAGAAGAAGAAAAACACACATATGTAAATATATA [CACACA_site3138] — lower, 9.66
- TATATATCTTTATGCACACACAAAGAAAATTTTCCT [CACACA_site7366] — lower, 9.55
- ATTAATTTAATTTGAATTATTTTATTATATTATTAT [XGTACX_negctrl_site10] — lower, 9.23
- GTTTGAATATATCAGGTGCATTTATAATTCATATGA — lower, 9.35
- ATATTATATTATTAATGTACATATATATAATTTTAA [XGTACX_site4974] — lower, 9
- AGAAATGAAATCCAAAAACGAGGAACCAATAACGCA [CACACA_negctrl_site1758] — lower, 9.79
- TCTTATCCATATATTACACACTATATATAGAAATTA [CACACA_site291] — lower, 9.34
- AAGGCAAACAAACACACACACATATATACCTATATA [CACACA_site5203] — lower, 10
- AAAGAAAAAAAAATTACACACATATATTATAGATAT [CACACA_site7495] — lower, 9.62
- TCCTTCGAAACTAAAATTCATTTAAAATATTGATAT [CACACA_negctrl_site369] — lower, 8.83
- TAGGTCCTCATTTTATGTACATAAAGAAATATGATT [XGTACX_site4138] — lower, 9.08
- TACATACATACATACACACACACATATATATATATA [CACACA_site42] — lower, 9.96
- ATATAAACATTTAGTAATCCATATAGGTACTACTGA [CACACA_negctrl_site1249] — lower, 9.15
- AAAAAAAATATATAAACACACATATTTATATACGCA [CACACA_site1631] — lower, 9.48
- TATTTATAGATATATACACACATATACATATTGTTT [CACACA_site7611] — lower, 9.52
- ATATATGCTAATATATGTACTGATTATATCTCTTCA [XGTACX_site7156] — lower, 9.16
- AAATTAGACTATAATACACACATAAAAAAAAAAAAA [CACACA_site6155] — lower, 9.6
- AGATATCTTGTGAAATAAAAAAAATAATTGCTTATA [CACACA_negctrl_site798] — lower, 8.94
- CCCTTTTTTTTTTAATGTACATATAATTATATATTT [XGTACX_site8568] — lower, 9.47
- GGAAACCTTTTTTTTACACACAATATATTAAGACTT [CACACA_site4899] — lower, 9.42
- AATTGTACGTAGGGGTATAAAAGCTTAAAAATGGGG [CACACA_negctrl_site1392] — lower, 9.63
- AAAGCAAAAGGAAAATAACCAACCCTAATTAACACA [CACACA_negctrl_site530] — lower, 9.5
- TAGTATTAAATATATACACACATATATACATATAGA [CACACA_site2154] — lower, 9.52
- TTAATTTTTTTTTCTTGTACACACTATTTTATAATT [XGTACX_site8783] — lower, 9.6
- GCAGCAGCATTTTCAGTGCATTATTATATTGTTCAT [GTGCAC_site9926] — lower, 9.39
- TATTATAATACTTATTGTACTTTTAGGTTAATTTAT [XGTACX_site995] — lower, 9.34
- GTAATAAAATGACATACATGCATTACAATTATGTAA [TGCATGCA_site220] — lower, 9.1
- GTTGCACAATGTTACACACACAATATATATCGTTAA [CACACA_site1275] — lower, 9.92
- GTGTACTTTTAAATAGTGCATTTTACAATAATAAAA [GTGCAC_site9653] — lower, 8.84
- GATTAATTTAAAAAATGTACATTTTATTGTATAACC [XGTACX_site5539] — lower, 9.11
- TAAACACCCATATAAACACACATACATACATACATA [CACACA_site5383] — lower, 9.7
- CCAAGAAACCAAAAAAGTACATACATGGTTATAATT [XGTACX_site4249] — lower, 9.36
- ACAATATGTATATATATATATATGCAAATGTATAAA [CACACA_negctrl_site53] — lower, 9.3
- ATATTAAATTCAATTTAATGTTTTGTGAATTTTAGA [CACACA_negctrl_site1421] — lower, 8.95
- TTAAATGGAAAAATATGTACATATATATATATATTT [XGTACX_site2286] — lower, 9.13
- TGAACTCATAGATTTAGTACATATATAAAAAAATTC [XGTACX_site1692] — lower, 9.06
- TTTGTTAAAAATATATTATGAATAAAAATATATTTT [CACACA_negctrl_site170] — lower, 8.8
- TTAAAACATAAAAAAAGTACATACAAATATATATAA [XGTACX_site789] — lower, 9.51
- AATTATATTACGAAATGTACATATAATAATGTATAT [XGTACX_site4410] — lower, 9.25
- GCCATTGTACCATCCACACACATATATATATGTATA [CACACA_site2704] — lower, 9.88
- TTCAAAACTTAAAATCGTACAAGACAATTATTATAT [XGTACX_site6626] — lower, 9.07
- TACAAAATAACTAGCACACATATGTATAAACATATA [CACACA_site5948] — lower, 9.52
